Measurements reported in the supplement of paper PMC10126150.
Sequences with one replicate were seen in a single cluster, so their values are uncertain.

Tested on: ATP
Assay: switch fluorescence ratio, 500 uM ATP over buffer (Cy3 cluster intensity, sum of 5 cycles each) (fold (ratio)); higher = stronger signal-on switching upon ATP binding; sequences stand for … in TCGTCGGCAGCGTCAGATGTGTATAAGAGACAGTTTTTTTTTTTTTTTTTTTTTTTTT…TC
Conditions: aptamer strand: ATP DNA aptamer (quencher-CACCTGGGGGAGTATTGCGGAGGAAGG + anchor), 100 nM annealed; ATP concentration: 500 uM; one replicate
In short: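 The quencher-labelled ATP aptamer, at 100 nM, was annealed to Cy3-labelled switching-strand clusters on a modified Illumina MiSeq flow-cell. The clusters were imaged in selection buffer, then after 15 min with 500 uM ATP at 22 °C, and this buffer/ATP cycle ran five times with NaOH stripping and re-annealing between runs. Per-cluster fluorescence ratios, summed target-cycle over summed buffer-cycle Cy3 intensity, were averaged per switch-domain sequence. Clusters outside 100-1000 RFU were excluded.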
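Further: ATP exposure 15 min at 22 °C before imaging.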

GATGTTTCTG
switch fluorescence ratio: 0.994

ATCAGGGCAC
switch fluorescence ratio: 1.04

ATAAGGGGCG
switch fluorescence ratio: 1.01

AATCCGCCAG
switch fluorescence ratio: 1.69

CGCCTCTATC
switch fluorescence ratio: 1.04

TATTTGTCG
switch fluorescence ratio: 0.934

GAAAGAGTCG
switch fluorescence ratio: 0.923

AATGTCCCCG
switch fluorescence ratio: 1.06

TTTTACCTCG
switch fluorescence ratio: 1.03

TATTCGTAAG
switch fluorescence ratio: 0.997

ACCCGTATAT
switch fluorescence ratio: 1.23

TATTTGAGGT
switch fluorescence ratio: 1.01

GCAGGGCTCC
switch fluorescence ratio: 1.91

TTCCGATCT
switch fluorescence ratio: 1.48

CGTCAATCAA
switch fluorescence ratio: 1.23

CTAATGCTCG
switch fluorescence ratio: 1.06

GAATAATTTT
switch fluorescence ratio: 0.989

ATCTCCAGA
switch fluorescence ratio: 1

ATCGTCCAAC
switch fluorescence ratio: 1.02

AATTTGCAGA
switch fluorescence ratio: 0.963

AGGAAGGGAT
switch fluorescence ratio: 0.955

TCTGAGAC
switch fluorescence ratio: 1.03

AAACGATTTG
switch fluorescence ratio: 0.998

GATCGGACGT
switch fluorescence ratio: 1.02

TGTGTCAAAA
switch fluorescence ratio: 1.02

GACGTCTCCA
switch fluorescence ratio: 0.953

CAGGTCGGGA
switch fluorescence ratio: 0.971

GGTCACGGTC
switch fluorescence ratio: 1.01

AAGCCGTCGA
switch fluorescence ratio: 1.03

CCTGTAAGCG
switch fluorescence ratio: 1.16

GGAGTTGAGT
switch fluorescence ratio: 0.994

ACATGGAATT
switch fluorescence ratio: 0.977

TTTAAACGGC
switch fluorescence ratio: 1.09

AATGACAGCG
switch fluorescence ratio: 1.05

ATTGGTGAGT
switch fluorescence ratio: 1.02

CTGTCCTGCC
switch fluorescence ratio: 1.24

GAGGGATAGA
switch fluorescence ratio: 1.01

AAACAACCCG
switch fluorescence ratio: 1.14

TACGGTTGC
switch fluorescence ratio: 2.12

TGGCCGCAAG
switch fluorescence ratio: 2.01

GCAACTAGA
switch fluorescence ratio: 0.971

ATGACACGTA
switch fluorescence ratio: 1.19

TGTCGTTAGC
switch fluorescence ratio: 0.882

CAGCATAACG
switch fluorescence ratio: 1.2

CGTCGGAACT
switch fluorescence ratio: 0.967

ATTGGATGTA
switch fluorescence ratio: 1.01

AAGTTGTGTG
switch fluorescence ratio: 1.01

AATTATCTAG
switch fluorescence ratio: 0.927

CTCACTCTCG
switch fluorescence ratio: 1.05

TATATCACCC
switch fluorescence ratio: 0.994

ATCACGTGCC
switch fluorescence ratio: 1.01

ATCACCGGTT
switch fluorescence ratio: 1

TGAGTGGTTC
switch fluorescence ratio: 0.985

CTAACGGGGT
switch fluorescence ratio: 1.02

CGGAGAGTAT
switch fluorescence ratio: 0.996

TTTGACGTTA
switch fluorescence ratio: 1

ACTCGGCCCG
switch fluorescence ratio: 0.999

GACGAAAGGG
switch fluorescence ratio: 1.03

AGTAGATAGA
switch fluorescence ratio: 0.996

TTCCCCCGGG
switch fluorescence ratio: 1.06

AGACGTAGAC
switch fluorescence ratio: 1.08

GTCGGAAAGT
switch fluorescence ratio: 0.986

TGATGGATGC
switch fluorescence ratio: 0.97

TTTTGCGGCT
switch fluorescence ratio: 1.1

TCACCTGGGT
switch fluorescence ratio: 0.984

AACGGCAACG
switch fluorescence ratio: 1.02

TTTATCGTGA
switch fluorescence ratio: 1.07

CAGCAAAACG
switch fluorescence ratio: 2.2

CTGCCACGTG
switch fluorescence ratio: 1.01

GGATATATTT
switch fluorescence ratio: 0.981

TCCCGCGGGA
switch fluorescence ratio: 1.03

TTAGAAGA
switch fluorescence ratio: 1.03

TATTTAACGC
switch fluorescence ratio: 0.978

GAGTGAAATA
switch fluorescence ratio: 0.986

AGTACGTCTG
switch fluorescence ratio: 0.961

TCACAGCGAT
switch fluorescence ratio: 2

ACAAGATTTC
switch fluorescence ratio: 0.98

ATATCCGTCC
switch fluorescence ratio: 1.31

TGGGCTAACG
switch fluorescence ratio: 1.07

ATTGCTGGG
switch fluorescence ratio: 1.03

ACGCCAAGGG
switch fluorescence ratio: 1.07

ATGCACATCC
switch fluorescence ratio: 1.07

CTTCACAGCG
switch fluorescence ratio: 1.02

GTTGGACAG
switch fluorescence ratio: 0.96

CTAGTTGCGA
switch fluorescence ratio: 1.03

TTAATCTTAG
switch fluorescence ratio: 1.05

ATAGCTGCGA
switch fluorescence ratio: 1.02

CCCCTATG
switch fluorescence ratio: 1.09

ACATGCAGC
switch fluorescence ratio: 1.02

ATTGTGCCCT
switch fluorescence ratio: 0.988

AACGGCACCT
switch fluorescence ratio: 1.61

GTGCTCTTGT
switch fluorescence ratio: 0.981

TGAACGACAT
switch fluorescence ratio: 1.03

ATCCGAGATT
switch fluorescence ratio: 1.09

ATCATCATAA
switch fluorescence ratio: 0.996

TGGATAATCA
switch fluorescence ratio: 1.02

GTCGTAACTT
switch fluorescence ratio: 0.997

ACGCTGCATG
switch fluorescence ratio: 1.16

AACCTCCTTA
switch fluorescence ratio: 1.12

CCCGGCAGGT
switch fluorescence ratio: 1.1

TCGCCTAGCC
switch fluorescence ratio: 1.06

AACTGTGCGA
switch fluorescence ratio: 1.05

CAGTTCTTTT
switch fluorescence ratio: 0.935

ATTATTTACG
switch fluorescence ratio: 1.03

CTCGGCCAGT
switch fluorescence ratio: 1.08

ATGGTCGATA
switch fluorescence ratio: 1

CCGCGATAGA
switch fluorescence ratio: 1.58

GTAGATAAAC
switch fluorescence ratio: 1.04

GAACCTTTTT
switch fluorescence ratio: 1.01

TAAGCCAGGG
switch fluorescence ratio: 1.07

GTCGATGCTG
switch fluorescence ratio: 1.01

TTAGTGGTAT
switch fluorescence ratio: 0.979

GTGGCTATGT
switch fluorescence ratio: 1.02

TATTTTAATA
switch fluorescence ratio: 1.01

ATTGAGCAG
switch fluorescence ratio: 1.02

AGTGAAAAAT
switch fluorescence ratio: 0.973

TTAATTTCGA
switch fluorescence ratio: 0.965

GCTACAAGTT
switch fluorescence ratio: 0.959

TAGCGGAGAC
switch fluorescence ratio: 1.07

TCTAACTCG
switch fluorescence ratio: 0.973

GAGGACATTT
switch fluorescence ratio: 0.973

GTTTACTAAG
switch fluorescence ratio: 1.02

GTGGGGGAGG
switch fluorescence ratio: 0.963

GGAGCCTAGA
switch fluorescence ratio: 0.97

GGGATCATTC
switch fluorescence ratio: 0.994

GTAAGTACGT
switch fluorescence ratio: 1.24

AGACTTTAC
switch fluorescence ratio: 1.16

GCGGTTCTGA
switch fluorescence ratio: 1.04

TGTAGACCGA
switch fluorescence ratio: 0.987

GATAAAAGGT
switch fluorescence ratio: 1.06

TATTCAAAG
switch fluorescence ratio: 0.941

CGTATGCTTC
switch fluorescence ratio: 1.05

ATGAAATAAC
switch fluorescence ratio: 1.03

GGCTGTAAAA
switch fluorescence ratio: 1.01

GGTGGCCGCG
switch fluorescence ratio: 0.979

CTCAGATG
switch fluorescence ratio: 1.02

GGAGGTCAAC
switch fluorescence ratio: 1.01

ATGCCCCGCG
switch fluorescence ratio: 1.05

TCTCTTGTTC
switch fluorescence ratio: 0.979

AGTACTGGCC
switch fluorescence ratio: 1.1

AAGCTAGAAC
switch fluorescence ratio: 1.01

ATCATAAACA
switch fluorescence ratio: 1.03

CTAACTTCCG
switch fluorescence ratio: 1.27

GGCTTGCATC
switch fluorescence ratio: 0.987

GACACCATTT
switch fluorescence ratio: 1.01

AATGTGTTCT
switch fluorescence ratio: 0.952

ACCTTGATT
switch fluorescence ratio: 1.04

GGGGTTCTTG
switch fluorescence ratio: 1.01

CGAGATGGAA
switch fluorescence ratio: 0.995

TATTTTTCCT
switch fluorescence ratio: 1.04

GCTTCCCCCA
switch fluorescence ratio: 1.91

CAGTACTTCA
switch fluorescence ratio: 1.11

GAACTCTGGA
switch fluorescence ratio: 0.997

GACGGCAGGC
switch fluorescence ratio: 1.05

AGCAGTATTG
switch fluorescence ratio: 1

GGTGTAGCAT
switch fluorescence ratio: 0.996

TATGTGTACC
switch fluorescence ratio: 1.01
